# Measurements published in the supplement of paper PMC4604168 (melanoma cell lines).
# The other results are listed elsewhere or left out. Single values are uncertain, as repeats are few or missing.
# System: IPC-298
# Test: cell count relative to DMSO control; melanoma cells; higher = more viable cells
# Settings: library dose: low library concentration; 72 h
# 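Further: cell number obtained by counting DAPI-stained nuclei in high-throughput microscope images with image analysis software, screen run in 1,536-well plates.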
row,Structure (SMILES),cell count [%]
1,"CC[C@]1(O)C[C@H]2CN(CCc3c([nH]c4ccccc34)[C@@](C(=O)OC)(c3cc4c(cc3OC)N(C=O)[C@H]3[C@@](O)(C(=O)OC)[C@H](OC(C)=O)[C@]5(CC)C=CCN6CC[C@]43[C@@H]65)C2)C1 [vincristine] + Cn1c(=O)n(-c2ccc(C(C)(C)C#N)cc2)c2c3cc(-c4cnc5ccccc5c4)ccc3ncc21 [NVP-BEZ235] (first compound 0.0001 µM, partner dose 0.004 µM)",102
2,"CC[C@]1(O)C[C@H]2CN(CCc3c([nH]c4ccccc34)[C@@](C(=O)OC)(c3cc4c(cc3OC)N(C=O)[C@H]3[C@@](O)(C(=O)OC)[C@H](OC(C)=O)[C@]5(CC)C=CCN6CC[C@]43[C@@H]65)C2)C1 [vincristine] + CO[C@H]1C[C@@H]2CC[C@@H](C)[C@@](O)(O2)C(=O)C(=O)N2CCCC[C@H]2C(=O)O[C@H]([C@H](C)C[C@@H]2CC[C@@H](OCCO)[C@H](OC)C2)CC(=O)[C@H](C)/C=C(\C)[C@@H](O)[C@@H](OC)C(=O)[C@H](C)C[C@H](C)/C=C/C=C/C=C/1C [everolimus] (first compound 0.0001 µM, partner dose 0.02 µM)",78.8
3,"N#CC[C@H](C1CCCC1)n1cc(-c2ncnc3[nH]ccc23)cn1 [ruxolitinib] + CC[C@]1(O)C[C@H]2CN(CCc3c([nH]c4ccccc34)[C@@](C(=O)OC)(c3cc4c(cc3OC)N(C=O)[C@H]3[C@@](O)(C(=O)OC)[C@H](OC(C)=O)[C@]5(CC)C=CCN6CC[C@]43[C@@H]65)C2)C1 [vincristine] (first compound 1 µM, partner dose 0.0001 µM)",109
4,"N#CC[C@H](C1CCCC1)n1cc(-c2ncnc3[nH]ccc23)cn1 [ruxolitinib] + O=C(Nc1ccccc1)c1cc([N+](=O)[O-])ccc1Cl [GW9662] (first compound 1 µM, partner dose 2 µM)",96.9
5,"N#CC[C@H](C1CCCC1)n1cc(-c2ncnc3[nH]ccc23)cn1 [ruxolitinib] + CC(=O)O[C@@]12CO[C@@H]1C[C@H](O)[C@@]1(C)C(=O)[C@H](O)C3=C(C)[C@@H](OC(=O)[C@H](O)[C@@H](NC(=O)OC(C)(C)C)c4ccccc4)C[C@@](O)([C@@H](OC(=O)c4ccccc4)[C@H]21)C3(C)C [Docetaxel] (first compound 1 µM, partner dose 0.0001 µM)",66.7
6,"N#CC[C@H](C1CCCC1)n1cc(-c2ncnc3[nH]ccc23)cn1 [ruxolitinib] + COc1ccc(Cl)c(Nc2nc3ccccc3nc2NS(=O)(=O)c2cccc(NC(=O)C(C)(C)N)c2)c1 [XL147] (first compound 1 µM, partner dose 0.8 µM)",97.9
7,"N#CC[C@H](C1CCCC1)n1cc(-c2ncnc3[nH]ccc23)cn1 [ruxolitinib] + Cc1cn(-c2cc(NC(=O)c3ccc(C)c(Nc4nccc(-c5cccnc5)n4)c3)cc(C(F)(F)F)c2)cn1 [nilotinib] (first compound 1 µM, partner dose 0.2 µM)",95.2
8,"CC[C@]1(O)C[C@H]2CN(CCc3c([nH]c4ccccc34)[C@@](C(=O)OC)(c3cc4c(cc3OC)N(C=O)[C@H]3[C@@](O)(C(=O)OC)[C@H](OC(C)=O)[C@]5(CC)C=CCN6CC[C@]43[C@@H]65)C2)C1 [vincristine] + C[C@@H](Oc1cc(-c2cnn(C3CCNCC3)c2)cnc1N)c1c(Cl)ccc(F)c1Cl [Crizotinib] (first compound 0.0001 µM, partner dose 0.2 µM)",94.1
9,"N#CC[C@H](C1CCCC1)n1cc(-c2ncnc3[nH]ccc23)cn1 [ruxolitinib] + COc1ccc(C2=N[C@@H](c3ccc(Cl)cc3)[C@@H](c3ccc(Cl)cc3)N2C(=O)N2CCNC(=O)C2)c(OC(C)C)c1 [Nutlin-3] (first compound 1 µM, partner dose 0.1 µM)",105
10,"N#CC[C@H](C1CCCC1)n1cc(-c2ncnc3[nH]ccc23)cn1 [ruxolitinib] + Cn1sc(=O)n(Cc2ccccc2)c1=O [TDZD-8] (first compound 1 µM, partner dose 0.4 µM)",102
11,"CC[C@]1(O)C[C@H]2CN(CCc3c([nH]c4ccccc34)[C@@](C(=O)OC)(c3cc4c(cc3OC)N(C=O)[C@H]3[C@@](O)(C(=O)OC)[C@H](OC(C)=O)[C@]5(CC)C=CCN6CC[C@]43[C@@H]65)C2)C1 [vincristine] + O=C(O)[C@@H]1[O][Sb](=[O])([O][Sb]2(=[O])[O][C@H]([C@H](O)CO)[C@H](O)[C@H](C(=O)O)[O]2)[O][C@H]([C@H](O)CO)[C@@H]1O [stibogluconate] (first compound 0.0001 µM, partner dose 2 µM)",105
